The RNAGym collection of RNA variant scans (doi:10.7554/elife.90254)
The source gives no read counts; variants with many changes may rest on few reads.

B1: OR4K15 (parent)
chain: GUUAACGGUCAUAGGCCAUGGAAACUAGGAGCACCAUUUCGCUGCCAGUGAAGAAAUGAACAAAGAAAAUCUGGGCCAGGCAGGCAUCAAAAGAAAUAGUCUUGCGCUCAACCAGAAAGUCUGUAAUCAUUUUAAGGGUA

Variants of: B1
Experiment: self-cleavage, relative activity (ratio to wild type); higher = more cleavage; in vitro, sequencing; the parent is a self-cleaving ribozyme

Variant	self-cleavage
U43C A62G U102C U133C	2.06
A82G A111G A126G	0.02
U49A A96G C113U	0.08
A23G U43C A92G	0.71
U19A A94G A96G U122A	2.12
A11G A117G U132C	0.86
U37C U38G A110G U120C	0.12
U9C G21A U108C	0.04
A13G A60G A92G	0
A11G A23G A59G U70C	0.89
A63G A68G A82G U103C C107A	0.01
U37C U43A U72A U87A A92G	0.14
C6U U19C A27U A114G A117G A126G U139C	0.66
U97C U103C A116G	0.63
U100C U103A A116G U127C	0.57
U38C U124C A125G U130C	1.3
A54G U100C A126G	1.7
U70C U72C A78C A86U U108C U132C	0.01
A5G U9C U43G A55G U122C	0.77
A33G G44A U122C	0.25
A62U A63G G119U	0
A60G A95G U103G A118G U139A	0.05
A13G U43C A64G	1.2
A30G A52G U130C U131C	1.12

Variant	self-cleavage
A13U U57C A94C	0.52
A30U A91G A96G A114U U122C	0.02
A56G A60C A92G	0.67
A24G A52G A91G	1.18
A33G U87C A95G	0.32
U12C A78G A90G A96C	0.07
A4G U9C A47G A59G A94G A117G	0.47
G8A A63G A95U U103C A116G A129C	0.32
G1A U2A C46U A63G A140C	0.76
C17U A30G A111U A118G	0.05
U9C G29U A59G C109U	0.43
U39A A96C U103A	0.55
A30G A78G A82G	0.09
A5G U9C A11G A23G A62U A78G	0.42
U3C A51G A95C U120C G138U	0.7
A36G U37C A59U U130C	0.75
A63C A78G C112U	0.02
A30G A55G A62G A64G A94U	1.21
A63G A67G U70C U108C U132C	0.02
A18U U57G U108A A117U	0
U43C A78U A91G	0.09
A18G A23G A51G A68U U108C A118G U127C	0.04
A5G U19A G73A U130C	0.06
A23U A30C A54G	1.39

Variant	self-cleavage
U103C U124A U132C	0.47
A30U A59G A95G	1.25
A22G A134U G137C	2.16
A24G A54G A67G U108C	0
A23G U108C A118U	0.01
C35A A54G A55G A62U G115A	0.09
A36G U43C A47U U103C U108C A114U	0.01
A33U U87C A96G	0.57
A23G A51G A68G A114G A126G	0.05
A118G A135G A140G	1.55
A27G A33U A56G U70C	0.84
A23G A60G G74A	0.17
U26A A78U U97C A116G	0.03
U2C U26C U49C U57C A78U	0.16
U43A A52G U122C	0.49
U2A A33G A55G A69G C77U A86U A92G A94U	1.6
A33C G115A A118G	0.07
C10U U19C A22G A23G U38C A59G U100C U120A	2.13
A51G A52G U72A U108C	0.15
U39C A55G U57C U102C U139C	2.24
U9A A69U U130C	0.89
A11G A27G U57G	0.91
A11U A22U A59G C85U	0.37
U2G U122A U133A	1.4

Variant	self-cleavage
C105U G115U A117U	0.01
A5U A67G C101A	0.3
A23G A59G A110G	0.21
U39C A67G A126U	0.76
A4G C88U U130C	1.58
A78U A95G C128A	0.49
A30G A59U A111G	0
A5G C17U A23G U87C U100C A118G U122C A135U	0.13
A5G U9C U37C G84A A118G	1.14
U2C U26C A36U A54U A66U U72A U108C U132C	0.02
A30G U37C A67G A110U	1.43
U12A C76U U103C	0.08
U9C U43C A64G C88G	1.18
A56G A59U A125G	0.66
A22G A47U A90C A129G	0.54
A23U A54G A68G U122C	0.34
U43A A63G G73A A96G A118G	0.06
A5G A18U A59G A135G	0.87
A55U U100C U103C A114G A117G	0.43
U12C U38C U43C A140U	0.85
A24G A89U A111G	0
U9C U26A U57A A66C A114U U120A	0.05
A64G C112U A134G	0.01
A33U A110G A129G U131C	0.05

Variant	self-cleavage
U9A G41A A86G A89U C105U A118G	0.06
U49C A89G A135G	1.51
U19C A62U A68G A69G	0.91
U38C U57C A64G	0.57
A67G A69G A95G A110U A126G	1.06
U39C A68G U132C	2.06
A24U U37C A96G U102C	1.36
A5G U57C A82G U102C	0.91
U26A A82U A110U	0.06
A82G U102C U108C	0.01
A116G A134U A135G	0.87
G29A A30U A69G A92G	2.22
U43C A55G A67G	1.78
U2C A90G A95G	1.31
A33G U57C A95G A118G	0.45
A11U C16U U19A G83A U100A G104U A117G U130C	0
A5G A18U A51G A96G	2.31
C6A A67G U70C A78G	0.15
A55G A78U U132C	0.17
A13G U70C G93U	0.42
A24G A27G A54G U120C	0.73
A4U U26A A66G U70C	0.7
A95G U102C A129G U132G	2.39
A11U G74A A116G	0.01

Variant	self-cleavage
A23U A51C U87A U97A	1.58
U2C U19A U127A	2.81
A36G U39C U57C A90G U130C	0.41
A27U A69U A90G A129G	0.57
A24G A56G U103C A129C	0.25
A47G A52U A60G	0.53
A4G U12C A13G U70C A110G	0.04
A4G A56G A60G	0.77
A22U A54G A66U C105U U108C	0.03
G41A A52G A56G	0.9
A4G U39C G65A	1.91
A126G U130C U131C	1.05
A62G A68G G138A	0.47
A60G A63U A111G	0.05
A52U U57C A63G A114G	0.16
A56G A63G A82U	0.28
A27G U38C U70C	0.11
G21U U70C U87C	0.74
A30G U38C U49A C105A	0.03
G74A A96G A111U	0.03
A62G A82U A98G A118G U131C	0
A13U A78G A126G A134U	0.15
A56G A95G U122C	1.43
G31A A86G U131C	1.04

Variant	self-cleavage
A51G A55G U72A	0.19
U38C A47C A54U	1.64
A82G G83A U100C	0.28
A62G A92G U124A	1.34
A52G A89C U108A	0.01
A30G U102A U108C U130C	0
A67G C109A A129G	0.14
U12A A33G A59G	0.5
A23G A91G A118G U120C U130C U139C	0.17
A4G U9C U12C A51G A68G U108C	0.2
U87C A111G U122C A126G	0
A63G U72C U100C U103G U122A	0.01
U19A U43A G50A	1.1
A27U A82G A92G A135G	0.41
C10U A33U U43C U49C A86G	0.37
G14A A23G U103C A129C	0.34
U3A A55G A64G A68G	1.34
A55G U57C A89G U97C U132C	0.66
A54U U87A G104A	0.06
U12C U38A A98G A111G	0.02
A78U A91G U100A	0.1
G75C A129G A140G	0.04
A66G U103A A140U	0.23
